Values belong to the binder of their own block, whether it stands above or below them.
What was measured:
[1] = molecular target: T1, LDLR ectodomain (R & D Systems) (UniProt P01130 22-788, limits assumed); test: biolayer interferometry, LDLR ectodomain immobilized
T1 construct: extracellular domain

[2] = molecular target: T1, LDLR ectodomain (R & D Systems); test: as above; remark: listed apart in the source
T1 sequence (P01130 22-788 limits assumed): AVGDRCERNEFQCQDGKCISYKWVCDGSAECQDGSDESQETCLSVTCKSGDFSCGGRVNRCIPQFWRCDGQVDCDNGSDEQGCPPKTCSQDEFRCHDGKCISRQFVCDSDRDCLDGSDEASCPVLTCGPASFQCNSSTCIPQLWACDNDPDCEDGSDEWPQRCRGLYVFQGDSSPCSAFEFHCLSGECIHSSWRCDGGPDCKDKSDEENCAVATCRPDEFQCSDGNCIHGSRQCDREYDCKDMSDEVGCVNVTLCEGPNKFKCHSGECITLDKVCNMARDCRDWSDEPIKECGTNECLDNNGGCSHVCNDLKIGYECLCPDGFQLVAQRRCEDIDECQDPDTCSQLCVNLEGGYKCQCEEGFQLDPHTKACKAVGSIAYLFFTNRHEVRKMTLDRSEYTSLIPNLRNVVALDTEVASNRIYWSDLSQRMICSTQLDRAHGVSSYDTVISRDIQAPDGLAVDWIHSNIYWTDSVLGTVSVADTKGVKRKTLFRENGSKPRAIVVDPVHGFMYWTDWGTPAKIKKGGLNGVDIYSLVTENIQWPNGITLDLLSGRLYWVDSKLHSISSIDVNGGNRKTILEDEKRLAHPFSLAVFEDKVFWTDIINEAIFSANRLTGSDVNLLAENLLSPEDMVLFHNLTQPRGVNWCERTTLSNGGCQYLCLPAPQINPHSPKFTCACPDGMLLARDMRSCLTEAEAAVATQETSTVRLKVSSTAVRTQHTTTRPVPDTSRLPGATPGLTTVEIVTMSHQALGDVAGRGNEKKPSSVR

Kd [1]: 214 nM
koff [2]: 0.00543 s⁻¹
kon [2]: 25400 M⁻¹ s⁻¹
B1: PCSK[…]A:R215A:R218A (enzyme)
chain: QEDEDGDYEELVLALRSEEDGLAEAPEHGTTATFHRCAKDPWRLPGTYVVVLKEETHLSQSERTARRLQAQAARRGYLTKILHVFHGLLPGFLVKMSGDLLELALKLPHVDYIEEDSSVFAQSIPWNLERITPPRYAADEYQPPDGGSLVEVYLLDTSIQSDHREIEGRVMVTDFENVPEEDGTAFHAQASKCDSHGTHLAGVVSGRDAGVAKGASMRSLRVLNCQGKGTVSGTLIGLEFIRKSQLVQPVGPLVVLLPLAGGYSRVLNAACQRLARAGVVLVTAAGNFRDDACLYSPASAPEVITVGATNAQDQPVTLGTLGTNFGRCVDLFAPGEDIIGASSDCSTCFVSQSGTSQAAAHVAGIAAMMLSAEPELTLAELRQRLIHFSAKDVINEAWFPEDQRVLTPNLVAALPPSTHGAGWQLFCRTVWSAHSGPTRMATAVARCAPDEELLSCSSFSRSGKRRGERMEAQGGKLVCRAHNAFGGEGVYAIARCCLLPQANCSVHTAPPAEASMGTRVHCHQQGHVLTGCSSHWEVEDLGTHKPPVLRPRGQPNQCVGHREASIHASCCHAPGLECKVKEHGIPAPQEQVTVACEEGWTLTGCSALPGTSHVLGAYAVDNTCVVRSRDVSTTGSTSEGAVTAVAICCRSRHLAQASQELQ
notes: expressed in CHO cells; also called PCSK9-AAA; K9-AAA

Kd [1]: 260 nM
koff [2]: 0.00931 s⁻¹
kon [2]: 35900 M⁻¹ s⁻¹
B2: PCSK[…]A:R218A (enzyme)
chain: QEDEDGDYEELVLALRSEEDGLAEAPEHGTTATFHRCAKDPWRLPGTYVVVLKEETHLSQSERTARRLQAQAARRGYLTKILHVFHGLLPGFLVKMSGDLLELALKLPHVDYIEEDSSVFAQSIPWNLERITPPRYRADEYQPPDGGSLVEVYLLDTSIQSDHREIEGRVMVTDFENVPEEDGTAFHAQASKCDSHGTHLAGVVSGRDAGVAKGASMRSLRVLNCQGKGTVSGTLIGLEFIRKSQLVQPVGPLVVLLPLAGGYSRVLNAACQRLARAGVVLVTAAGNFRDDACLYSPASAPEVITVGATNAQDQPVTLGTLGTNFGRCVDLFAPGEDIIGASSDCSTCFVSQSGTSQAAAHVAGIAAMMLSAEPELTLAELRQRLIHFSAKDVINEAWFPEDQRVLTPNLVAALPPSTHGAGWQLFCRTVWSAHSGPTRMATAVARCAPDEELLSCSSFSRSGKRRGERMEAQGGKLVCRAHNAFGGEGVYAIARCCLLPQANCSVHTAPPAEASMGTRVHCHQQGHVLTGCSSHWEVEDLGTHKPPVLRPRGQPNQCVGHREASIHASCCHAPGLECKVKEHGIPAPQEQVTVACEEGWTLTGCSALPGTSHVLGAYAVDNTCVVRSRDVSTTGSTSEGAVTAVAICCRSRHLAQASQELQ
notes: also called PCSK9-AA; K9-AA

Source: US20200283478A1 (Genentech, published 2020)
